The campaign covered roughly 150,000 compounds. About 540 (0.36%) showed an effect of 50% or more. The list shows a part of the results.

This assay relates to Plasmodium falciparum. The assay is described as follows: Primary screen in NF54 nanoGlo assay, in single point, at 2uM, 72h; a lower Z score goes with more inhibition. Particulars: timepoint 72 hour. The format is functional, Erythrocyte.

For orientation: % Inhibition means the relative decrease from the control value, in per cent. For the compound `O=C(NCC1CCC(O)C1)c1ccc(B(O)O)cc1` (centres undefined), the “% Inhibition” value was -15% and the Z score worked out at 1.91.

Take `CC1CC(C)CN(C(=O)c2ccc3nnnn3c2)C1` (centres undefined): the “% Inhibition” value was -4% and the Z score turned out to be 0.33.

With `CCn1cc(S(=O)(=O)N2CCCN(C)c3cc(F)ccc32)cn1`, the “% Inhibition” value is on record as -8% and the Z score is 1.27.

For `CN(C1(C(N)=O)CCCC1)S(=O)(=O)c1cccnc1`, the “% Inhibition” value is -2% and the Z score is recorded as 0.31.

Take `CC[C@H](C)N(CCO)S(=O)(=O)c1cc(C(=O)NC)n(C)c1`: the “% Inhibition” value was -13% and the Z score is given as 1.11.

In the case of `NC(=O)NCCC(=O)N(C1CCCCC1)C1CCCC1`, the “% Inhibition” value is listed as -5% and the Z score worked out at 0.69.

For `O=C1CN(C(=O)[C@@H]2CC=CCC2)c2ccccc2N1`, the “% Inhibition” value is reported as -15% and the Z score is given as 2.79.

On to `CC[C@H](NC(=O)c1c(C)c(C)c(C)[nH]c1=O)c1ncnn1C`, for which the “% Inhibition” value is 11% and the Z score was -1.38.

On to `COc1cc(NC(=O)Cc2ccc3nc(NC(C)=O)sc3c2)cc(OC)c1`, for which the “% Inhibition” value is reported as -5% and the Z score worked out at 0.47.

Take `Cc1ccccc1C(=O)N1[C@H](C(=O)NCC(C)C)COC12CCN(C(=O)C(C)(C)C)CC2`: the “% Inhibition” value is recorded as -1% and the Z score stood at 0.11.

As to `CN1C[C@@H](C(=O)NCC=Cc2ccccc2)CC1=O`, the “% Inhibition” value was -4% and the Z score amounted to 0.39.

Consider `CCN=C(NCc1ccccc1COC)NC[C@H](C)N1CCOCC1`, for which the “% Inhibition” value is 16% and the Z score was -1.41.

Take `CCc1nc(CN(C)Cc2cn(CCO)nc2C)no1`: the “% Inhibition” value was -4% and the Z score is reported as 0.52.

`CN1CC[C@@]2(CCC1=O)CN(C(=O)Nc1cccc(C#N)c1)CCN2C`: the “% Inhibition” value is recorded as -16% and the Z score is listed as 2.14.

On to `COC(=O)c1ccc(NCCOc2cccc3c2OC(C)(C)C3)nn1`, for which the “% Inhibition” value is given as -6% and the Z score turned out to be 1.11.

`Cn1cc(Oc2ccccc2C(=O)Nc2ccc3c(c2F)CCNC3=O)cn1`: the “% Inhibition” value is -11% and the Z score was 1.84.

With `CC[C@@H](C(=O)n1nc(-c2ccccc2Cl)nc1N)c1ccccc1`, the “% Inhibition” value is recorded as -7% and the Z score turned out to be 1.15.

Take `O=C(C1CCCCC1)N(CCN1CCOCC1)c1nc2ccc(F)cc2s1`: the “% Inhibition” value is on record as -16% and the Z score is 1.99.

Take `CN(c1ccn(C)n1)S(=O)(=O)CCCCS(=O)(=O)N1CCCC1`: the “% Inhibition” value is reported as -3% and the Z score came to 0.4.

Regarding `CCC(C)[C@H](N)C(=O)N(C)Cc1ccccc1` (some centres undefined), the “% Inhibition” value is 0% and the Z score came out at 0.01.

On to `CC(C)Oc1cnc(C(=O)NC[C@@H]2CC[C@H](C)N2C)cn1`, for which the “% Inhibition” value is -1% and the Z score was found to be 0.17.

As for `Cc1cc(N2C(=O)CCS2(=O)=O)cc(C)c1S(=O)(=O)NCc1ccccn1`, the “% Inhibition” value was determined as 34% and the Z score is -0.85.

`O=C(O)[C@H]1CCCN1C(=O)c1ccc(-c2ccccc2F)o1`: the “% Inhibition” value is given as -1% and the Z score is 0.27.

Take `CN(Cc1cnccn1)S(=O)(=O)c1cccc2c1OC(C)(C)C2`: the “% Inhibition” value is given as -11% and the Z score came to 1.24.

Regarding `Cn1nc(-c2cccnc2)cc1CNS(C)(=O)=O`, the “% Inhibition” value is on record as 16% and the Z score is on record as -2.02.

Turning to `Cn1c(=O)sc2cc(CNc3cccc(OCC(F)F)n3)ccc21`, the “% Inhibition” value is recorded as -1% and the Z score was determined as 0.07.

For the compound `COC[C@]1(O)CCOC2(CCN(Cc3ccc(C)cn3)CC2)C1`, the “% Inhibition” value is given as -11% and the Z score stood at 1.59.

In the case of `Cc1ccc(OC2(C(=O)O)CCN(c3nccc4occc34)CC2)cn1`, the “% Inhibition” value is 0% and the Z score turned out to be 0.01.

As for `O=C(CCc1nnc2ccc(N3CCOCC3)nn12)N1CCCCC1`, the “% Inhibition” value is reported as -19% and the Z score is on record as 1.82.

As for `Cc1cc(C(=O)N2CCC[C@H]2c2ccc3c(c2)OCCCO3)c(C)n1CC(F)(F)F`, the “% Inhibition” value worked out at 0% and the Z score is given as 0.08.

Regarding `C[C@H](NC(=O)C(F)(F)c1ccccn1)c1cnn(C)c1`, the “% Inhibition” value was found to be 8% and the Z score is listed as -1.19.

For the compound `CC1CN(C(=O)Cc2ccc(C(=O)O)cc2)C(c2ccccc2)CO1` (centres undefined), the “% Inhibition” value is listed as -19% and the Z score came to 2.

As for `Cc1cc(NC(=O)CCC(F)(F)F)nc(=O)[nH]1`, the “% Inhibition” value is -3% and the Z score is given as 0.36.

Take `Cc1nn(Cc2nc(-c3ccc(C(C)C)cc3)no2)c(=O)c(C#N)c1C`: the “% Inhibition” value is -11% and the Z score is recorded as 1.81.

With `Cc1cccc2nc(C(=O)N(C)CC3(CO)CCOCC3)c(F)n12`, the “% Inhibition” value is -5% and the Z score is 0.88.

As for `COC(=O)CN1CCN(C(=O)c2ccc3ccccc3n2)CC1=O`, the “% Inhibition” value was -5% and the Z score turned out to be 0.94.

For the compound `COc1ccc(-n2nc3nc[nH]c(=O)c3n2)cc1`, the “% Inhibition” value was 3% and the Z score is on record as -0.46.

Take `CC(C)(C)c1nnc(C(=O)NC[C@@]2(c3ccccc3)CCCO2)o1`: the “% Inhibition” value was 3% and the Z score was -0.53.

On to `Cc1csc(=O)n1CC(=O)N(C)CC1CCCC1`, for which the “% Inhibition” value is given as 26% and the Z score was -2.92.

For `CC(=O)N1CCC(CC(=O)N2C[C@@H](Oc3ccccc3)C[C@H]2C(=O)N2CCOCC2)CC1`, the “% Inhibition” value is listed as -8% and the Z score turned out to be 1.05.

For the compound `COCc1cc(N2CCc3ncnc(N(C)C)c3C2)n2ncnc2n1`, the “% Inhibition” value was -5% and the Z score was 0.51.

For `CCc1ncnc(N2C[C@H](O)C(C)(C)C2)c1F`, the “% Inhibition” value is -16% and the Z score amounted to 1.48.
